From the supplement of paper PMC8728848
The other results are listed elsewhere or left out.

Key:
Test in all cases: glycan array binding signal (z-score within array); higher = stronger binding
Details in all cases: glycan notation: IUPAC condensed, linker removed
[1] = biological target: GlcNAc(b1-3)Gal(b1-4)GlcNAc(b1-3)Gal(b1-4)GlcNAc(b1-3)Gal(b1-4)GlcNAc(b1-3)Gal(b1-4)GlcNAc(b1-2)[GlcNAc(b1-3)Gal(b1-4)GlcNAc(b1-3)Gal(b1-4)GlcNAc(b1-3)Gal(b1-4)GlcNAc(b1-3)Gal(b1-4)GlcNAc(b1-6)]Man(a1-6)[GlcNAc(b1-3)Gal(b1-4)GlcNAc(b1-3)Gal(b1-4)GlcNAc(b1-3)Gal(b1-4)GlcNAc(b1-3)Gal(b1-4)GlcNAc(b1-2)Man(a1-3)]Man(b1-4)GlcNAc(b1-4)[Fuc(a1-6)]GlcNAc
How it was run: (§1)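 The Consortium for Functional Glycomics database supplied 3228 glycan arrays, of which those lacking an available protein sequence were dropped. The binding signal, a within-array Z-score, was averaged across arrays of the same protein sequence and across linkers. Negative scores can be read as non-binding.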

[2] = biological target: GlcNAc(b1-3)Gal(b1-4)GlcNAc(b1-3)Gal(b1-4)GlcNAc(b1-3)GalNAc
How it was run: as §1

[3] = biological target: GlcNAc(b1-3)Gal(b1-4)GlcNAc(b1-3)GalNAc
How it was run: as §1

[4] = biological target: GlcNAc(b1-3)Gal(b1-4)GlcNAc(b1-3)[GlcNAc(b1-3)Gal(b1-4)GlcNAc(b1-3)]GalNAc
How it was run: as §1

[5] = biological target: GlcNAc(b1-3)Gal(b1-4)GlcNAc(b1-6)[Gal(b1-3)]GalNAc
How it was run: as §1

[6] = biological target: GlcNAc(b1-3)Gal(b1-4)GlcNAc(b1-6)[GlcNAc(b1-3)Gal(b1-3)]GalNAc
How it was run: as §1

[7] = biological target: GlcNAc(b1-3)Gal(b1-4)GlcNAc(b1-6)[GlcNAc(b1-3)]Gal(b1-4)GlcNAc
How it was run: as §1

[8] = biological target: GlcNAc(b1-3)GalNAc
How it was run: as §1

[9] = biological target: GlcNAc(b1-3)Man
How it was run: as §1

[10] = biological target: GlcNAc(b1-3)[GlcNAc(b1-4)][GlcNAc(b1-6)]GlcNAc
How it was run: as §1

[11] = biological target: GlcNAc(b1-3)[GlcNAc(b1-6)]Gal(b1-4)GlcNAc
How it was run: as §1

[12] = biological target: GlcNAc(b1-3)[GlcNAc(b1-6)]GalNAc
How it was run: as §1

[13] = biological target: GlcNAc(b1-4)Gal(b1-4)GlcNAc
How it was run: as §1

[14] = biological target: GlcNAc(b1-4)GlcNAc
How it was run: as §1

[15] = biological target: GlcNAc(b1-4)GlcNAc(b1-4)GlcNAc
How it was run: as §1

[16] = biological target: GlcNAc(b1-4)GlcNAc(b1-4)GlcNAc(b1-4)GlcNAc(b1-4)GlcNAc
How it was run: as §1

[17] = biological target: GlcNAc(b1-4)GlcNAc(b1-4)GlcNAc(b1-4)GlcNAc(b1-4)GlcNAc(b1-4)GlcNAc
How it was run: as §1

[18] = biological target: GlcNAc(b1-4)[GlcNAc(b1-6)]GalNAc
How it was run: as §1

[19] = biological target: GlcNAc(b1-6)Gal(b1-4)GlcNAc
How it was run: as §1

[20] = biological target: GlcNAc(b1-6)GalNAc
How it was run: as §1

[21] = biological target: GlcNAc6S(b1-3)Gal(b1-4)GlcNAc
How it was run: as §1

[22] = biological target: Kdn(a2-3)Gal(b1-3)GalNAc
How it was run: as §1

[23] = biological target: Kdn(a2-3)Gal(b1-3)GlcNAc
How it was run: as §1

[24] = biological target: Kdn(a2-3)Gal(b1-4)Glc
How it was run: as §1

[25] = biological target: Kdn(a2-3)Gal(b1-4)GlcNAc
How it was run: as §1

[26] = biological target: Kdn(a2-3)Gal(b1-4)[Fuc(a1-3)]GlcNAc
How it was run: as §1

[27] = biological target: Kdn(a2-6)Gal(b1-4)GlcNAc
How it was run: as §1

[28] = biological target: Man(a1-2)Man(a1-2)Man(a1-3)Man
How it was run: as §1

[29] = biological target: Man(a1-2)Man(a1-2)Man(a1-6)[Man(a1-3)]Man
How it was run: as §1

[30] = biological target: Man(a1-2)Man(a1-3)Man
How it was run: as §1

[31] = biological target: Man(a1-2)Man(a1-3)[Man(a1-2)Man(a1-6)]Man
How it was run: as §1

[32] = biological target: Man(a1-2)Man(a1-3)[Man(a1-2)Man(a1-6)]Man(a1-6)[Man(a1-2)Man(a1-2)Man(a1-3)]Man
How it was run: as §1

[33] = biological target: Man(a1-2)Man(a1-3)[Man(a1-2)Man(a1-6)]Man(a1-6)[Man(a1-2)Man(a1-2)Man(a1-3)]Man(b1-4)GlcNAc(b1-4)GlcNAc
How it was run: as §1

[34] = biological target: Man(a1-2)Man(a1-3)[Man(a1-6)]Man(a1-6)[Man(a1-2)Man(a1-3)]Man(b1-4)GlcNAc(b1-4)GlcNAc
How it was run: as §1

[35] = biological target: Man(a1-2)Man(a1-6)[Man(a1-3)]Man(a1-6)[Man(a1-2)Man(a1-2)Man(a1-3)]Man
How it was run: as §1

[36] = biological target: Man(a1-2)Man(a1-6)[Man(a1-3)]Man(a1-6)[Man(a1-2)Man(a1-2)Man(a1-3)]Man(b1-4)GlcNAc(b1-4)GlcNAc
How it was run: as §1

[37] = biological target: Man(a1-3)[Man(a1-6)]Man
How it was run: as §1

[38] = biological target: Man(a1-3)[Man(a1-6)]Man(a1-6)[Man(a1-2)Man(a1-3)]Man(b1-4)GlcNAc(b1-4)GlcNAc
How it was run: as §1

[39] = biological target: Man(a1-3)[Man(a1-6)]Man(a1-6)[Man(a1-3)]Man
How it was run: as §1

[40] = biological target: Man(a1-3)[Man(a1-6)]Man(a1-6)[Man(a1-3)]Man(b1-4)GlcNAc(b1-4)GlcNAc
How it was run: as §1

[41] = biological target: Man(a1-3)[Man(a1-6)]Man(b1-4)GlcNAc(b1-4)GlcNAc
How it was run: as §1

[42] = biological target: Man(a1-3)[Man(a1-6)]Man(b1-4)GlcNAc(b1-4)[Fuc(a1-6)]GlcNAc
How it was run: as §1

[43] = biological target: Man(a1-6)Man
How it was run: as §1

[44] = biological target: Man(b1-4)GlcNAc
How it was run: as §1

[45] = biological target: MurNAc(b1-4)GlcNAc
How it was run: as §1

B1: CFEM-CGl (Candida glabrata), Q6FRS0 (protein)
chain: VLATPPACLLACVAQVSKQSSQCHTLNQVGCFCENENTAIKNCLDSICPNGNSDAAYTAFKNSCGDVGKAVASV
- glycan array binding signal (z-score) [1]: 0.1
- glycan array binding signal (z-score) [2]: -0.32
- glycan array binding signal (z-score) [3]: -0.202
- glycan array binding signal (z-score) [4]: -0.124
- glycan array binding signal (z-score) [5]: 0.757
- glycan array binding signal (z-score) [6]: -0.079
- glycan array binding signal (z-score) [7]: -0.42
- glycan array binding signal (z-score) [8]: -0.059
- glycan array binding signal (z-score) [9]: -0.407
- glycan array binding signal (z-score) [10]: -0.399
- glycan array binding signal (z-score) [11]: -0.258
- glycan array binding signal (z-score) [12]: -0.135
- glycan array binding signal (z-score) [13]: -0.343
- glycan array binding signal (z-score) [14]: -0.269
- glycan array binding signal (z-score) [15]: -0.168
- glycan array binding signal (z-score) [16]: -0.156
- glycan array binding signal (z-score) [17]: 0.197
- glycan array binding signal (z-score) [18]: -0.333
- glycan array binding signal (z-score) [19]: -0.396
- glycan array binding signal (z-score) [20]: 0.678
- glycan array binding signal (z-score) [21]: -0.04
- glycan array binding signal (z-score) [22]: -0.025
- glycan array binding signal (z-score) [23]: -0.288
- glycan array binding signal (z-score) [24]: -0.384
- glycan array binding signal (z-score) [25]: -0.167
- glycan array binding signal (z-score) [26]: 0.32
- glycan array binding signal (z-score) [27]: -0.13
- glycan array binding signal (z-score) [28]: 0.893
- glycan array binding signal (z-score) [29]: -0.069
- glycan array binding signal (z-score) [30]: -0.381
- glycan array binding signal (z-score) [31]: -0.443
- glycan array binding signal (z-score) [32]: -0.214
- glycan array binding signal (z-score) [33]: -0.31
- glycan array binding signal (z-score) [34]: -0.365
- glycan array binding signal (z-score) [35]: -0.474
- glycan array binding signal (z-score) [36]: -0.137
- glycan array binding signal (z-score) [37]: -0.258
- glycan array binding signal (z-score) [38]: -0.174
- glycan array binding signal (z-score) [39]: -0.098
- glycan array binding signal (z-score) [40]: -0.003
- glycan array binding signal (z-score) [41]: -0.234
- glycan array binding signal (z-score) [42]: -0.316
- glycan array binding signal (z-score) [43]: -0.226
- glycan array binding signal (z-score) [44]: -0.397
- glycan array binding signal (z-score) [45]: -0.125
